About 120 (0.25%) of roughly 48,000 compounds were called active. Not shown: some 4% with an inconclusive outcome. Calls follow the shape of the dose curve; as a rule, active = well fitted activation curve with a large enough effect; inconclusive = small, poorly fitted or top-dose-only effect, or another doubt; inactive = no such curve, though single readings can be large or run the other way. The list shows a part of the results.
Assay: Primary qHTS for Identification of Small Molecule Activators of Huntingtin-Antisense Promoter Activity; also: nearly all actives have a fitted effect of over 55% in size
Details: HEK293 HTT-AS promoter firefly luciferase reporter, 24 h; series mostly up to 57.5 µM; activity change, positive = activation: at the top concentration
Procedure, shortened: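 Firefly luciferase signal from promoter-reporter HEK293 cells was scaled between vehicle (0%) and zero RLU (-100%). Compounds were tested at final concentrations of up to 57.5 uM over 24 h at 37 degrees C. PTC124 at 50 uM final served as control inhibitor.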
Potency is read from the fitted curve at half-maximal effect.

Row | Compound | activity change, positive = activation | Potency
1 | O=C(O)c1cc(-c2ccccc2)nn1Cc1ccccc1 | inactive: 12.2% | –
2 | Cc1ccc(N2CCN(c3nc4ccc(C(=O)c5ccccc5)cc4n4cnnc34)CC2)c(C)c1 | inactive: -6.69% | –
3 | Cc1cc(C)cc(NC(=O)C(=O)NCCc2sc(-c3cccc(F)c3)nc2C)c1 | inactive: -9.4% | –
4 | CC(=O)Nc1ccc(NC(=O)c2ccc3c(c2)CCN3S(=O)(=O)c2ccc(C)cc2)cc1 | inactive: -18.1% | –
5 | Cc1ccccc1NC(=O)CSc1ccc(-c2ccccn2)nn1 | inactive: -3.32% | –
6 | CCN1CCN(CCCNC(=O)Cn2nc(C)n3c(cc4c(OC)cccc43)c2=O)CC1 | inactive: -9.88% | –
7 | COc1ccccc1-c1nn(CCC(=O)Nc2ccc(C)cc2)c2nc(C)cc(C)c12 | inactive: -12.3% | –
8 | CC1=C(C(N)=O)C(c2ccc(C)cc2)n2nc(SCc3ccccc3)nc2N1 (configuration not stated) | inactive: -26.1% | –
9 | CCCCCn1c(CCCNC(=O)c2ccccc2OC)nc2ccccc21 | inactive: -26.3% | –
10 | O=C(NCc1ccccc1Cl)C1=Cc2cc(Br)ccc2OC1 | inactive: -8.45% | –
11 | CCOC(=O)NNC(=O)C1CCC(C)CC1 (configuration not stated) | inactive: -4.13% | –
12 | CC(C)Oc1ccc(CNC(=O)c2cnc3sc(N4CCCC4)nn3c2=O)cc1 | inactive: -2.61% | –
13 | O=C(NCC(c1ccc2c(c1)OCO2)N1CCN(c2ccccc2)CC1)C(=O)Nc1ccccc1F (configuration not stated) | inactive: -11% | –
14 | Cc1oc2c(c1C(=O)NCc1ccccc1F)C1=NCCN1C=N2 | inactive: -13% | –
15 | CCOc1ccc(NC(=O)CC2C(=O)N(c3ccc(OC)cc3)C(=O)N2CCC2=CCCCC2)cc1 (configuration not stated) | inactive: -20.6% | –
16 | CC(=O)Nc1cccc(-c2nnc(SCC(=O)c3cc([N+](=O)[O-])ccc3Cl)o2)c1 | inactive: -20.8% | –
17 | CCN(CC)C(=O)Cn1ncc2c([nH]c3ccccc32)c1=O | inactive: 0.241% | –
18 | CCOC(=O)c1cnc2ccc(C(=O)OC)cc2c1Nc1ccc(OCc2ccccc2Cl)cc1 | inactive: -22.2% | –
19 | COc1cccc(NC(=O)C(C)n2c(=O)cc(C(F)(F)F)c3c(C)nn(C)c32)c1 (configuration not stated) | inactive: -29.3% | –
20 | CCCNC(=O)CN1C(=O)COc2ccc(S(=O)(=O)N3CCCCCC3)cc21 | inactive: -13.7% | –
21 | CCc1ccc(CNC(=O)CN2C(=O)C3CCCCN3c3ccc(C(=O)N4CCCC4)cc32)cc1 (configuration not stated) | inactive: -13.7% | –
22 | CC1CCN(S(=O)(=O)c2ccc3c(c2)N(C)C(=O)CC(=O)N3C)CC1 | inactive: 2.44% | –
23 | CC(C)Oc1ccc(CNC(=O)C(C)n2ccc3cc(S(=O)(=O)N4CCCCCC4)ccc32)cc1 (configuration not stated) | inactive: -23.1% | –
24 | COc1ccccc1NC(=O)c1cc2c(-c3ccccc3)nn(-c3ccccc3)c2s1 | inactive: -14.7% | –
25 | CCc1ccccc1NC(=O)Cn1c(=O)n(C(C)C)c(=O)c2oc3ccccc3c21 | inactive: -8.35% | –

Row | Compound | activity change, positive = activation | Potency
26 | CCN(CC)C(=O)Cn1c(SCC(=O)Nc2ccc(F)cc2)nc2ccccc21 | inactive: -16.5% | –
27 | Cc1noc(Cn2c(=O)c3ccccc3n(CC(=O)Nc3cc(Cl)ccc3C)c2=O)n1 | inactive: -8.07% | –
28 | CCOC(=O)c1[nH]c2ccccc2c1NC(=O)c1ccc(C)c(C)c1 | inactive: 0.582% | –
29 | O=C(CSc1n[nH]c(-c2ccccc2)n1)N1CCN(c2ccc(F)cc2)CC1 | inactive: -15.5% | –
30 | Cc1ccc(-c2nnc(Nc3ccc(OCC(N)=O)cc3)c3ccccc23)cc1S(=O)(=O)NCC1CCCO1 (configuration not stated) | inactive: -3.92% | –
31 | O=C(CCn1cnc2onc(-c3ccc(F)cc3)c2c1=O)Nc1cccc(C(F)(F)F)c1 | inactive: -59.2% | –
32 | O=C(O)C(S)C(S)C(=O)O (configuration not stated) | inactive: 0.668% | –
33 | Cc1ccc(-n2c(=O)c3c(cnn3C)n(CC(=O)Nc3cccc(Cl)c3)c2=O)cc1 | inactive: -18.7% | –
34 | CCC(C(=O)NCCc1ccc(OC)c(OC)c1OC)n1nc(C)c2sc3ccccc3c2c1=O (configuration not stated) | inactive: -34.7% | –
35 | Cc1ccc(CNC(=O)C2CCN(C(=O)N3CC(C)Oc4ccc(Cl)cc43)CC2)cc1 (configuration not stated) | inactive: -19.1% | –
36 | CCn1nc(C(=O)O)c(=O)c2cc3c(cc21)OCO3 | inactive: -5.24% | –
37 | Cc1ccc(CSc2nc3ccccc3c3nc(CCn4c(C)nc5ccccc54)nn23)cc1 | inactive: 2.25% | –
38 | CCc1ccccc1NC(=O)CCn1cccn1 | inactive: -10.9% | –
39 | Cc1cc(C)cc(NC(=O)C(C)N2Cc3ccccc3C2=O)c1 (configuration not stated) | inactive: 1.41% | –
40 | Cc1ccc(C)c(N2CCN(CCCNC(=O)c3cnn(-c4cccc(Cl)c4)c3C3CCN(C(=O)OC(C)(C)C)CC3)CC2)c1 | inactive: -62.4% | –
41 | Cc1cc(C)cc(NC(=O)NCc2noc3ccccc23)c1 | inactive: -11.6% | –
42 | CCC(=O)N1CCCc2cc(S(=O)(=O)N3CCC(C(=O)NC4CCC(C)CC4)CC3)ccc21 (configuration not stated) | inactive: -18.8% | –
43 | CCOc1ccccc1C(=O)Nc1cccc(-c2nc3ccccc3s2)c1 | inactive: 14% | –
44 | COc1ccc(-c2cn3c(n2)sc2cc(C(=O)NCCc4ccccc4)ccc23)cc1 | inactive: 5.69% | –
45 | COc1ccccc1/C=C/c1nc(C#N)c(NCc2ccccc2)o1 | inactive: 7.91% | –
46 | Cc1ccc(C)c(NC(=O)c2cnc(N3CCCC3)nc2C)c1 | inactive: -7.51% | –
47 | Cc1cc(CS(=O)(=O)c2ccccc2)cc(OCc2ccc(CN3CCC[C@H]3CO)cc2)c1 | inactive: -2.27% | –
48 | O=C(OCc1cc(=O)n2nc(C3CC3)sc2n1)c1cccc(NC(=O)c2ccccc2Cl)c1 | inactive: -0.92% | –
49 | COc1ccc(-n2ncc(C(=O)NCc3cccs3)c2C2CCN(C(=O)OC(C)(C)C)CC2)cc1 | inactive: -12.5% | –
50 | Cc1cccc(CNC(=O)C2CCN(c3nn4cc(-c5ccc(F)cc5)nc4s3)CC2)c1 | inactive: 28.4% | –

Row | Compound | activity change, positive = activation | Potency
51 | CCc1ccccc1N(CC)C(=O)c1cc2c(s1)-c1ccccc1SC2 | inactive: -26.1% | –
52 | COCCOC(=O)C1=C(C)NC(C)=C(C(=O)OC/C=C/c2ccccc2)C1c1cccc([N+](=O)[O-])c1 (configuration not stated) | inactive: -35.7% | –
53 | O=C(Cc1ccc(Cl)cc1)NC1CC(=O)N(c2ccc3c(c2)OCCO3)C1 (configuration not stated) | inactive: -9.75% | –
54 | Cc1cc(=O)n2nc(N3CCC(C(=O)Nc4ccc(Br)c(C)c4)CC3)sc2n1 | inactive: -7.94% | –
55 | O=S1(=O)OC(c2ccc(O)cc2)(c2ccc(O)cc2)c2ccccc21 | inactive: -26.3% | –
56 | COCCNC(=O)c1ccc(Cn2c(SCC(N)=O)nc3ccccc3c2=O)cc1 | inactive: -17.6% | –
57 | Cn1c(SCc2ccc(F)cc2)nc2ccc(C(=O)NCc3cccc(Cl)c3)cc21 | inactive: -23.3% | –
58 | CCOc1ccccc1C(=O)NCc1ccc2c(c1)CCN2C(=O)c1ccc(F)cc1 | inactive: -1.69% | –
59 | COc1ccc2c(CNC3CCC(C)CC3)c(C(=O)O)n(Cc3ccc(F)cc3)c2c1 (configuration not stated) | inactive: -23.2% | –
60 | COc1cccc(OCCSc2nc3ccccc3n2CC(=O)N2CCOCC2)c1 | inactive: -18.7% | –
61 | Cc1ccc(N(Cc2cccs2)C(=O)c2ccc(OC(C)C)cc2)cc1 | inactive: -19.7% | –
62 | COc1ccc(-c2noc(CN(C(=O)c3ccc(C)cc3C)C(C)C)n2)cc1 | inactive: -20.8% | –
63 | CCOC(=O)c1ccccc1NC(=O)CSc1ccc(-c2sc(C)nc2C)nn1 | inactive: -27.7% | –
64 | Cc1ccc(C(=O)NCCc2csc(-c3cccc(F)c3)n2)cc1C | inactive: -9.36% | –
65 | CCN(C(=O)c1c(C)oc2ncnc(N3CCCCC3)c12)c1cc(C)ccc1C | inactive: -6.53% | –
66 | COc1ccc(C2CC(=O)Nc3c2c(C)nn3-c2nncc(-c3ccccc3)n2)c(OC)c1OC (configuration not stated) | inactive: -20.6% | –
67 | COc1cc2nc(NCCc3cccc(C)c3)n3nc(-c4ccccc4)nc3c2cc1OC | inactive: -2.61% | –
68 | CCOC(=O)c1cccc(NC(=O)COc2ccc3c(C)cc(=O)oc3c2)c1 | inactive: 8.31% | –
69 | CCOC(=O)c1cnc2c(ccc3ccccc32)c1Nc1ccccc1O | inactive: 3.26% | –
70 | COc1ccc(CNC(=O)C2CCN(S(=O)(=O)c3cccc(-c4noc(C)n4)c3)CC2)cc1 | inactive: -17.9% | –
71 | Cc1cccc(Cn2c(CN3CCC(C(=O)NC(C)C)CC3)cc3ccccc32)c1 | inactive: -22.4% | –
72 | CCOc1ccc(CNC(=O)c2cc3c(=O)oc4ccc(C)cc4c3s2)cc1 | inactive: 5.91% | –
73 | COc1ccc(C2C(C(=O)Nc3ccccc3)=C(C)Nc3nc(-c4ccc(Cl)cc4)nn32)cc1 (configuration not stated) | inactive: -60.7% | –
74 | Cc1ccc(NC(=O)CSCc2cc(=O)c3ccccc3[nH]2)c(C)c1 | inactive: -22.1% | –
75 | Cc1ccccc1CNCCCSc1nnnn1C | inactive: -2.21% | –

Row | Compound | activity change, positive = activation | Potency
76 | COc1ccc(Cn2c(CO)cnc2SCc2ccccc2)cc1 | inactive: 6.42% | –
77 | O=C(COCc1cc(-c2ccc(F)cc2)on1)Nc1cccc(C(F)(F)F)c1 | inactive: -6.48% | –
78 | CCCOc1ccc(C2C(=O)N(C3CCCCC3)CC(=O)N2C2CCCCC2)cc1OC (configuration not stated) | inactive: -5.17% | –
79 | COc1ccc(-c2cn3c(n2)sc2cc(C(=O)NCCCN4CCN(C)CC4)ccc23)cc1 | inactive: -16.4% | –
80 | Cc1ccc(-n2c(=O)c3c(C)c(C(=O)N(C)C)sc3n(Cc3ccccc3C)c2=O)cc1C | inactive: 3.34% | –
81 | Cc1cccc(Nc2nc(-c3ccccc3)nc3ccccc23)c1 | inactive: -29.9% | –
82 | CCOc1ccc(-c2cn3c(n2)sc2cc(C(=O)NC(C)C45CC6CC(CC(C6)C4)C5)ccc23)cc1 (configuration not stated) | inactive: 5.71% | –
83 | CC1CCN(C(=O)Cn2cc(SCC(=O)NCc3ccccc3)c3ccccc32)CC1 | inactive: -32.4% | –
84 | CCOc1ccc(C(c2c(O)cc(C)n(Cc3ccco3)c2=O)N2CCN(C)CC2)cc1 (configuration not stated) | inactive: 5.18% | –
85 | CCCCNc1ccc(C(=O)OCCOCCOCCOCCOCCOCCOCCOCCOCCOC)cc1 | inactive: -48.8% | –
86 | CCc1nnc(NC(=O)c2nc(SCc3cccc(C)c3)ncc2Cl)s1 | inactive: -20.9% | –
87 | Cc1cc([C@@H](C)Nc2ccccc2C(=O)O)c2nc(N3CCOCC3)cc(=O)n2c1 | inactive: -32.1% [at 116 µM, percent change from vehicle, -100% = no light] | –
88 | CCC(Sc1nnc(-c2ccc(F)cc2)c(-c2ccc(F)cc2)n1)C(=O)NC1CCCC1 (configuration not stated) | inactive: -13.5% | –
89 | CC(Nc1oc(-c2ccc(COc3ccccc3)o2)nc1C#N)c1ccccc1 (configuration not stated) | inactive: -15.4% | –
90 | Cc1cccc(-n2ncc3c(NCCOCCO)ncnc32)c1 | – | active: 3.98 µM
91 | COc1cccc(N2CC(NC(=O)/C=C\c3ccccc3)CC2=O)c1 (configuration not stated) | inactive: -3.46% | –
92 | CCC(=O)N1CCc2cc(S(=O)(=O)CCC(=O)Nc3cc(Cl)ccc3OC)ccc21 | inactive: -8.02% | –
93 | O=C(CSc1nc2c([nH]c3ccccc32)c(=O)n1-c1ccccc1F)Nc1cccc(Cl)c1 | inactive: -25.3% | –
94 | CC(C)CC(=O)NC1CC(=O)N(c2ccc3c(c2)OCCO3)C1 (configuration not stated) | inactive: -16.8% | –
95 | COc1cc2nccc(Oc3ccc(NC(=O)C4(C(=O)Nc5ccc(F)cc5)CC4)cc3)c2cc1OC | inactive: -26% | –
96 | CN(Cc1ccccc1)c1nc2c(S(=O)(=O)c3cccc(Cl)c3)nnn2c2ccsc12 | inactive: -19.4% | –
97 | CCCCNC(=O)CSc1nc2cc3c(cc2c(=O)n1CCCC(=O)NCc1ccc(OC)cc1)OCO3 | inactive: -11.2% | –

Reference: PubChem BioAssay AID1508624 (National Center for Advancing Translational Sciences (NCATS), 2021)
